# Experimental data from PubChem BioAssay AID686978 (National Center for Advancing Translational Sciences (NCATS), 2013).
# Screen size: about 420,000 compounds; about 64,000 (15%) were called active. The inconclusive results got no clear call from the source; some entries with a clear call stand among them for comparison. Calls come from the whole dose curve; as a rule, active = well fitted inhibition curve with a large enough effect; inconclusive = small, poorly fitted or top-dose-only effect; inactive = flat fitted curve, though single readings scatter. Potencies of inconclusive entries are left out as doubtful fits.
# Assay: qHTS for Inhibitors of human tyrosyl-DNA phosphodiesterase 1 (TDP1): qHTS in cells in absence of CPT; note: nearly all actives have a fitted effect of over 55% in size
# Details: DT40 Tdp1-/- hTDP1 cells, no CPT, ATP luminescence, 48 h; activity change, negative = growth inhibition: at 46.2 µM (top of the series) unless noted
# Summary of the method: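 No-CPT arm: Tdp1-/-;hTDP1 DT40 cells (400/well) plus compounds, incubated ≥48 hr at 37 °C. Readout CellTiter-Glo luminescence.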
# % is set by controls: 0 for no effect and ±100 for the full control effect; potency is the fitted concentration of half-maximal effect; tags give direction and shape of the fitted curve.
SMILES,"activity change, negative = growth inhibition",Potency
CN(C)c1ccc(/C=C/c2c([N+](=O)[O-])c(=O)n(C)c(=O)n2C)cc1,inactive: 0.934%,
O=C1NC(c2ccc(Br)cc2)=N/C1=C/c1ccco1,,"inconclusive [inhibitor, full curve]"
Oc1ccc2ccccc2c1Br,,"inconclusive [inhibitor, full curve]"
Cc1nn(C)c(C)c1CN(C)S(=O)(=O)c1ccc(F)cc1,,active: 20.6 µM
Cc1ccc(OCC2Cn3c(nc4c3c(=O)[nH]c(=O)n4C)O2)cc1C (stereo not given),,active: 10.3 µM
CC(C)CC1NC(=O)N(CC(=O)N(C)C2CCCCC2)C1=O (stereo not given),inactive: 6.43%,
CCOc1ccc(NC(=O)Cn2c(=O)n(CC(=O)NCc3ccccc3Cl)c(=O)c3sccc32)cc1,inactive: -14.4%,
CCC1OC(c2ccc([N+](=O)[O-])cc2)=Nc2ccccc21 (stereo not given),inactive: -0.861%,
CC1CCc2c(sc3nc(CN4CCN(S(=O)(=O)c5ccccc5[N+](=O)[O-])CC4)[nH]c(=O)c23)C1 (stereo not given),,"inconclusive [inhibitor, single point]"
Cn1cc(CN2CCC(Oc3ccc(C(=O)N4CCCC4)cc3)CC2)cn1,inactive: -10%,
COc1ccc2nccc(/C=C/c3ccc(N(C)C)cc3)c2c1,,active: 11.2 µM
O=C(Nc1ccc(Br)cc1)C1CCCN1S(=O)(=O)c1ccc(F)cc1 (stereo not given),,active: 14.6 µM
O=C(CNS(=O)(=O)c1ccccc1)OCC(=O)c1ccc(F)cc1,inactive: 3.31%,
CCOC(=O)c1c(N2C(=O)C3C4C=CC(O4)C3C2=O)sc2c1CCCC2 (stereo not given),,active: 16.4 µM
O=C(NC1CCCc2ccccc21)C1CCC(CNS(=O)(=O)c2cccc3nsnc23)CC1 (stereo not given),,"inconclusive [inhibitor, single point]"
COc1ccc(OCC(=O)Nc2ccccc2OC)cc1,inactive: -3.51%,
Cc1cc(NC(=O)c2cc(-c3ccccn3)nc3ccccc23)no1,inactive: -21.2%,
Cc1ccc(N2C(=O)C(NC(=O)c3c(F)cccc3F)(C(F)(F)F)C3=C2CC(C)(C)CC3=O)cc1 (stereo not given),inactive: -5.91%,
Cc1ccc(NS(=O)(=O)c2ccc3oc(=O)ccc3c2)cc1Cl,,"inconclusive [inhibitor, partial curve, poor fit]"
CC(C)c1nn2c(=O)cc(COC(=O)c3ccccc3NC(=O)c3cccc(Cl)c3)nc2s1,,active: 18.4 µM
COc1cc(NCCCCC(C)N)c2nccc(C)c2c1 (stereo not given),,active: 3.66 µM
COc1ccc(CCNC(=O)CCn2c(=O)c3ccccc3n(Cc3ccccc3)c2=O)cc1OC,,active: 18.4 µM
Cc1cc(Nc2ccc(C(=O)O)c(O)c2)n2ncnc2n1,inactive: 1.27%,
CCCN1CNc2c(c(=O)[nH]c(=O)n2CCc2ccc(OC)c(OC)c2)C1,inactive: -9.37%,
Fc1ccc(NC(=S)NCCN2CCOCC2)cc1,inactive: 5.79%,

SMILES,"activity change, negative = growth inhibition",Potency
COCCOc1cc(N)c(Cl)cc1Cl,inactive: -14.5%,
O=C(COc1cc(Cl)c(Cl)cc1Cl)NCCc1ccccn1,inactive: -8.55%,
COc1ccc(-n2cnc3cc(NCc4ccco4)ccc32)cc1,,"inconclusive [inhibitor, partial curve]"
CCOC(=O)Cc1csc(NC(=O)CSc2ncnc3c2cnn3-c2ccccc2Cl)n1,,"inconclusive [inhibitor, single point]"
Nc1cccc2cccc([N+](=O)[O-])c12,inactive: -28.5%,
COc1cccc(-c2sc3ccccc3c2-c2ccc(OCCN3CCCCC3)cc2)c1,,active: 18.4 µM
CCOCCOC(=O)COC(=O)c1ccccc1NC(=O)c1ccccc1,inactive: 8.88%,
COc1ccc2oc(-c3ccncc3)cc(=O)c2c1,,"inconclusive [inhibitor, single point]"
CN(C)CCNc1oc(-c2ccc(COc3ccc(Cl)cc3)o2)nc1C#N,,active: 8.2 µM
Cc1ccc(C)c(N2CCN(C(=O)CCS(=O)(=O)c3ccc4c(c3)NC(=O)CO4)CC2)c1,,"inconclusive [inhibitor, partial curve, poor fit]"
O=C(Nc1cccc(-c2nc3ncccc3o2)c1)c1ccccc1,,active: 11.6 µM
COc1ccc(N2CCN(C(=O)CCc3c[nH]c4ccccc34)CC2)cc1,,"inconclusive [inhibitor, single point]"
C=C(C)CSc1nnc(-c2ccc(C)cc2)n1N,inactive: -3.9%,
CC(C)(C)CC(=O)NC(=S)Nc1ccccc1[N+](=O)[O-],,"inconclusive [inhibitor, single point]"
COc1ccccc1C(=O)NCCn1cc(SCC(=O)NCC2CCCO2)c2ccccc21 (stereo not given),,"inconclusive [inhibitor, single point]"
CCOC(=O)c1sc2nc(CC(=O)OC)nc(NCCN3CCOCC3)c2c1C,,"inconclusive [inhibitor, single point]"
Cc1cccc(C(=O)N[C@H](C(=O)NCCc2ccc(Cl)cc2)C(C)C)c1,,"inconclusive [inhibitor, single point]"
Cc1cccc(C)c1NC(=O)CN(C)CC(=O)Nc1ccc(F)c(Cl)c1,,"inconclusive [inhibitor, single point]"
COc1ccc(NC(=O)CNC(c2ccccc2)c2ccccc2)cc1,,active: 25.9 µM
COc1ccc(N2CCN(Cc3nnc(-c4cccc(Br)c4)o3)CC2)cc1,,"inconclusive [inhibitor, single point]"
COc1ccccc1CC(=O)Nc1ccc2c(c1)CCC2,,"inconclusive [inhibitor, single point]"
CC(C)c1ccc(NC(=O)CSc2nc3ccsc3c(=O)n2Cc2ccc(C(=O)O)cc2)cc1,,"inconclusive [inhibitor, single point]"
Cc1cc(C)cc(Oc2nc3c(C)cccn3c(=O)c2/C=C(\C#N)c2nc3ccccc3s2)c1,,"inconclusive [inhibitor, single point]"
COc1ccc(CCNC(=O)C(C)n2c(=O)cc(C(F)(F)F)c3c(C)nn(C)c32)cc1OC (stereo not given),,"inconclusive [inhibitor, single point]"
COc1ccc(C(CNC(=O)c2cccc(S(=O)(=O)Nc3ccccc3OC)c2)N2CCOCC2)cc1 (stereo not given),,"inconclusive [inhibitor, single point]"
